Data from the supplement of paper PMC8512760.
Counter-ions that a name gives are not always drawn. The list shows a part of the results. Single values are uncertain, as repeats are few or missing.

The compounds below were run on HCC-1187 (assay: cell viability relative to vehicle (% of vehicle); basal-like triple-negative breast cancer lines; higher = less cytotoxic). Settings: 10 µM; 72 h.
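Also: stably firefly luciferase-GFP labeled cells in 96-well plates, viability read as luciferase photon flux after d-luciferin addition, treated wells normalized to vehicle wells, single-dose high-throughput screen.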

Row | SMILES | cell viability
1 | O=c1cc[nH]c(=O)[nH]1 [Uracil] | 96.1
2 | O=C([O-])CC(O)CC(O)C=Cc1c(C2CC2)nc2ccccc2c1-c1ccc(F)cc1.O=C([O-])CC(O)CC(O)C=Cc1c(C2CC2)nc2ccccc2c1-c1ccc(F)cc1.[Ca+2] (stereo not given) [Pitavastatin Calcium] | 43
3 | CN(C)CC(c1ccc(O)cc1)C1(O)CCCCC1.O.O=C(O)CCC(=O)O (stereo not given) [Desvenlafaxine Succinate] | 96.4
4 | N#CC1CC2CC2N1C(=O)C(N)C12CC3CC(CC(O)(C3)C1)C2 (stereo not given) [Saxagliptin] | 95.8
5 | O=C([O-])c1cc(=O)c2c(OCC(O)COc3cccc4oc(C(=O)[O-])cc(=O)c34)cccc2o1.[Na+].[Na+] [Cromolyn sodium] | 83.9
6 | CCOC(=O)C1=CC(OC(CC)CC)C(NC(C)=O)C(N)C1 (stereo not given) [Oseltamivir] | 94
7 | CC(C)(C)N.CCCC(NC(C)C(=O)N1C(C(=O)O)CC2CCCCC21)C(=O)OCC (stereo not given) [Perindopril Erbumine] | 114
8 | CC(=O)Nc1ccccc1 [Acetanilide] | 105
9 | Cl.O=C1NCC2(CCN(CCc3ccccc3)CC2)O1 [Fenspiride HCl] | 87.9
10 | CN(C)CCc1c[nH]c2ccc(CC3COC(=O)N3)cc12 (stereo not given) [Zolmitriptan] | 97.5
11 | Cl.NC(CO)C(=O)NNCc1ccc(O)c(O)c1O (stereo not given) [Benserazide HCl] | 66.1
12 | OCC1OC(OC2(CCl)OC(CCl)C(O)C2O)C(O)C(O)C1Cl (stereo not given) [Sucralose] | 88.7
13 | CC(=O)O.NC(N)=NN=Cc1c(Cl)cccc1Cl [Guanabenz Acetate] | 101
14 | CCCCCCCCCCCCCCCCO [1-Hexadecanol] | 84.7
15 | Nc1nc(=O)n(C2CSC(CO)O2)cc1F (stereo not given) [Emtricitabine] | 85.6
16 | Cc1nnc(C(C)C)n1C1CC2CCC(C1)N2CCC(NC(=O)C1CCC(F)(F)CC1)c1ccccc1 (stereo not given) [Maraviroc] | 115
17 | COc1ccccc1OCC(O)CN1CCN(CC(=O)Nc2c(C)cccc2C)CC1.Cl.Cl (stereo not given) [Ranolazine 2HCl] | 115
18 | CN1CCC(=C2c3ccccc3C=Cc3ccccc32)CC1.Cl [Cyproheptadine hydrochloride] | 105
19 | CN(C)c1ccc(C(=C2C=CC(=[N+](C)C)C=C2)c2ccc(N(C)C)cc2)cc1.[Cl-] [Crystal Violet] | 19.7
20 | Oc1ccc(OCc2ccccc2)cc1 [Monobenzone] | 150

Row | SMILES | cell viability
21 | CCOC(=O)n1ccn(C)c1=S [Carbimazole] | 77
22 | CNC(=O)C(NC(=O)C(CC(C)C)C(O)C(=O)NO)C(C)(C)C (stereo not given) [Marimastat] | 52.1
23 | CCN1CCCC1CNC(=O)c1cc(S(=O)(=O)CC)c(N)cc1OC (stereo not given) [Amisulpride] | 124
24 | Cl.O=S(=O)(c1cccc2cnccc12)N1CCCNCC1 [Fasudil (HA-1077) HCl] | 101
25 | CNCC(O)C(O)C(O)C(O)CO.Cc1c(Nc2ncccc2C(=O)O)cccc1C(F)(F)F [Flunixin Meglumin] | 88.6
26 | CC1=NS(=O)(=O)c2cc(Cl)ccc2N1 [Diazoxide] | 92
27 | O=C(O)CCNC(=O)c1ccc(/N=N/c2ccc(O)c(C(=O)O)c2)cc1 [Balsalazide] | 92.2
28 | CC(C)c1cc(C(=O)N2Cc3ccc(CN4CCN(C)CC4)cc3C2)c(O)cc1O | 39.3
29 | CNC(=C[N+](=O)[O-])NCCSCc1csc(CN(C)C)n1 [Nizatidine] | 98.4
30 | CN1CCN(c2cc3c(cc2F)c(=O)c(C(=O)O)cn3-c2ccc(F)cc2)CC1 [Difloxacin HCl] | 75.1
31 | COc1ccc(C[C@H](N)C(=O)N[C@@H]2[C@H](O)[C@H](n3cnc4c(N(C)C)ncnc43)O[C@@H]2CO)cc1.Cl.Cl [Puromycin dihydrochloride] | 23.8
32 | COc1ccc(CNc2nc(N3CCCC3CO)ncc2C(=O)NCc2ncccn2)cc1Cl (stereo not given) [Avanafil] | 74.9
33 | CC[C@]1(O)C[C@H]2CN(CCc3c([nH]c4ccccc34)[C@@](C(=O)OC)(c3cc4c(cc3OC)N(C=O)[C@H]3[C@@](O)(C(=O)OC)C(OC(C)=O)[C@]5(CC)C=CCN6CC[C@]43C65)C2)C1.O=S(=O)(O)O (stereo not given in full) [Vincristine] | 53.5
34 | CC(=O)O[C@H]1C[C@@]2(C)[C@@H](C[C@@H](O)[C@H]3[C@@]4(C)CC[C@@H](O)[C@@H](C)[C@@H]4CC[C@@]32C)/C1=C(\CCC=C(C)C)C(=O)[O-].[Na+] [Fusidic Acid (sodium salt)] | 97
35 | CN1CCN2c3ncccc3Cc3ccccc3C2C1 (stereo not given) [Mirtazapine] | 96.6
36 | COC(=O)Nc1nc2cc(C(=O)c3ccccc3)ccc2[nH]1 [Mebendazole] | 42
37 | NCC1OC(OC2C(N)CC(N)C(OC3OC(CO)C(O)C(N)C3O)C2O)C(N)CC1O (stereo not given) [Tobramycin] | 93.4
38 | CN(C)NN=C1N=CN=C1C(N)=O [Dacarbazine] | 91.7
39 | NCCCC(O)(P(=O)([O-])O)P(=O)(O)O.[Na+] [Alendronate sodium] | 97.9
40 | O=C(O)c1ccc2ccccc2c1O.OCc1cc(C(O)CNCCCCCCOCCCCc2ccccc2)ccc1O (stereo not given) [Salmeterol xinafoate] | 86.4
